# Test results as given in the supplement of paper PMC3334620.
# Whole data set: some 33,000 sequences, median “E-score (-0.5 to 0.5)” near -0.021, cut for the highest 2% near 0.32. This is one part of the list.
# Biological target: T1, Zap1 (UniProt P47043)
# T1 sequence: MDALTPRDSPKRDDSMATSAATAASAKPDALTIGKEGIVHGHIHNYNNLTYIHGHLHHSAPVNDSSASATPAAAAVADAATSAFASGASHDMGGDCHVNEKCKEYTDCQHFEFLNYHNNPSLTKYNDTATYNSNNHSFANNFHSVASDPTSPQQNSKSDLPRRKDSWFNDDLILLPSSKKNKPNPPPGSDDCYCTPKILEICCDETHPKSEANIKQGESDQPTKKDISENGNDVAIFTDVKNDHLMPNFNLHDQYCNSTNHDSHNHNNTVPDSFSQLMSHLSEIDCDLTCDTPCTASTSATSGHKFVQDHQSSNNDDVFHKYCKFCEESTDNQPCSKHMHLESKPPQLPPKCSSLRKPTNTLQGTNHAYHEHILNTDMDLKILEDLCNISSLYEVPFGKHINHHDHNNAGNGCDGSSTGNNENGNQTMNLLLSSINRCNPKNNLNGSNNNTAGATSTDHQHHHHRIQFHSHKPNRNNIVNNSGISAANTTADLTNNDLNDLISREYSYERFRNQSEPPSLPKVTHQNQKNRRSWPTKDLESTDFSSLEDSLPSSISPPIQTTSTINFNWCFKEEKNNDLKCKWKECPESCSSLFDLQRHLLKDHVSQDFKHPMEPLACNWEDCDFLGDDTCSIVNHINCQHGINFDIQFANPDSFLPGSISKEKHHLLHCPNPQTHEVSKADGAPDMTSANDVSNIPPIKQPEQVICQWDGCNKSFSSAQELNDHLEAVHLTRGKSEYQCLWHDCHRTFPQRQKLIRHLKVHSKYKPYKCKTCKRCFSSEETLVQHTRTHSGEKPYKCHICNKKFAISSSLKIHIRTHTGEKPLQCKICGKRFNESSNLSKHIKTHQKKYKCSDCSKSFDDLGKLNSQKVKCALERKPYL
# Test: PBM E-score (8-mer binding enrichment) (E-score (-0.5 to 0.5)); higher = stronger / more preferred TF binding; most listed sequences are background and not binding sites
# Conditions: protein concentration: 200 nM; construct: GST-full length
# How it was run: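 Bound GST-tagged yeast transcription factors, applied at about 100-200 nM to double-stranded universal all-10-mer Agilent arrays, were detected with fluorescent anti-GST. Scans were normalised with masliner. A modified Wilcoxon-Mann-Whitney statistic, the E-score, was assigned to each ungapped eight-base word pooled with its reverse complement by the Universal PBM Analysis Suite.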
row,Sequence,PBM E-score
1,GGTTCGAA,0.195
2,CAGTGAGG,-0.166
3,ACAAGCAG,-0.0114
4,CACTTGCG,0.0494
5,ATGTGCGC,-0.193
6,CGGCTTCA,-0.0407
7,CAGTGGAG,-0.0265
8,CGCTCGGC,-0.188
9,CCCGACCA,0.197
10,AGGCGTAG,-0.223
11,GTCCGCAC,-0.0047
12,ACGGACGT,-0.121
13,GATGAGCA,0.02
14,CAATTGCA,-0.0471
15,AATAGAAA,-0.0712
16,CACAAAGC,0.132
17,CACTAGAG,0.0544
18,AGTCGCGG,-0.143
19,TGCGGAAA,-0.092
20,ACGTTACA,-0.0394
21,AACAGCGG,-0.195
22,GGTGGAAC,0.0372
23,CGGGCTAG,-0.0994
24,TCTCGAAA,0.103
25,ACGAGAAA,0.0387

row,Sequence,PBM E-score
1,AAATTGTC,0.156
2,AAGTCCCG,-0.242
3,AGCTTTGC,-0.268
4,AAGTTAAT,-0.108
5,ACATATCC,-0.0913
6,TAGATGCA,-0.171
7,GAGCCTCC,-0.225
8,ACTGTTCC,-0.193
9,CCCTTCCA,0.0312
10,GATTGAAC,0.00648
11,ACGATATC,0.0333
12,ACCCAACT,0.0992
13,AATGCTCG,-0.21
14,CAAAAACA,0.0707
15,AACCCCGC,0.293
16,CAATAAAC,0.164
17,AATTGTTA,0.133
18,ACTTTGCA,0.116
19,ACCGATCA,0.0449
20,CCAGCCTA,-0.0123
21,TACTCAAA,0.148
22,CCGTGTTC,0.017
23,ATTGGTAC,0.0554
24,TACATGCA,-0.145
25,AACGAATC,-0.0538

row,Sequence,PBM E-score
1,GATTAGAC,-0.121
2,GCACATGC,-0.0933
3,GGTGCTAC,-0.141
4,AGCGGACC,0.045
5,CCGGATTA,-0.00605
6,ATGAGGGG,0.02
7,CGTACATC,-0.131
8,ATACTCAC,-0.133
9,GAGTAAGC,-0.221
10,ACCAGAAT,0.217
11,ATTGCTTA,-0.0684
12,CTGTCGCA,-0.146
13,ATAACGGC,0.0836
14,CATAAACG,0.0839
15,ACACATCG,-0.0862
16,CCACAGCG,-0.0732
17,GCCCGCCA,-0.153
18,ATTTTGTG,0.208
19,ACCCGCAT,0.271
20,GGCGTCAA,0.198
21,CAGCTTAG,-0.169
22,ATTTGCAC,0.0494
23,CGCCCCAG,-0.237
24,CCTTGATC,0.193
25,ACATGAAG,-0.0619

row,Sequence,PBM E-score
1,CACAATGG,0.0532
2,CATCATTA,0.167
3,TTATATAA,0.331
4,AGCGGCGG,0.103
5,AGCATATA,-0.0568
6,GAGCATGC,-0.334
7,GGGTCAGA,0.0808
8,CTCTACAA,0.117
9,AGATACAA,0.129
10,ACAGCGGA,-0.165
11,AAGCGGGA,-0.182
12,CCAACTGC,-0.165
13,CACCGAGA,-0.0426
14,AACCGCAC,0.25
15,GTTGATTA,0.193
16,CAGCACAA,0.0977
17,ACGGGGCT,-0.31
18,CTAATCAG,-0.094
19,CCGCCATC,-0.148
20,TATCTACA,0.154
21,GAGGTAAC,0.365
22,ACAAGAAC,0.268
23,CGCGGCCA,0.0146
24,CATCCTCC,-0.176
25,GTAGCTTA,0.116

row,Sequence,PBM E-score
1,AATGGCTG,-0.0933
2,AGAACTTG,-0.0173
3,ATGTGAGA,0.0533
4,CGTGGCTC,-0.23
5,CAACCCTA,0.442
6,ATAGTCGC,-0.00369
7,ATCATTAC,0.0815
8,ATTACTCG,0.153
9,ATACTGTG,-0.013
10,CCTCGCCC,-0.0823
11,CCGCATTC,-0.0743
12,ACCACTCA,0.0988
13,AAGCCAGC,-0.143
14,CTTCTATC,0.0389
15,CCGGCCTA,-0.0184
16,ACGCAACT,0.138
17,CTTGGATC,0.0534
18,CGGTGGAA,-0.149
19,CAAGTCAG,-0.0782
20,AACTTAAG,-0.0397
21,GAAGATAA,0.148
22,AGGGAAAG,-0.268
23,ATGGAGTC,-0.234
24,GAACTGCC,-0.141
25,GACCGATA,0.0462

row,Sequence,PBM E-score
1,ATCTGCGA,-0.114
2,CCCGATCG,0.0686
3,GATCCGCC,-0.0696
4,ACTGTGGA,-0.0912
5,AGGGAGGA,-0.225
6,ATTCCCTG,0.0268
7,GTCGAGCA,-0.236
8,CGCCTGAC,-0.0944
9,AATGGTCC,0.119
10,CCGCCTAG,-0.134
11,AGCAGTAG,-0.287
12,GTAGCTAC,0.0187
13,AAGCGCAA,-0.0758
14,AGACCAGA,-0.047
15,ATTGCTAA,0.153
16,CACATTAG,-0.103
17,CGGAACTA,0.141
18,AGACGACT,-0.212
19,GGATATCC,0.0655
20,GAATATCC,-0.129
21,CGATACCA,0.101
22,CCAATAGA,-0.224
23,ACATTCTA,-0.0304
24,AACCGTGC,0.244
25,CGGTAGCC,0.186

row,Sequence,PBM E-score
1,CTGACTAA,-0.0753
2,GGGTATAA,0.293
3,CTGTATCA,-0.181
4,GAAGAATC,-0.133
5,CAGTTCGA,0.0226
6,CACTCTGA,-0.21
7,AGTGGGAA,0.022
8,ATTGTTGG,0.169
9,CCGGGTAA,0.246
10,GACTACCA,0.00811
11,CGAGCCCC,-0.18
12,GAGGCTGC,-0.0982
13,AGCACTAG,-0.136
14,GTTCATCA,0.00086
15,CTGATATA,-0.111
16,GCAGATAC,0.0429
17,CTGCGAAA,-0.0193
18,CGATCACC,0.226
19,ACGACTCT,-0.163
20,CTGTAGTA,0.23
21,AGCTGACT,-0.0774
22,CATCTGGA,0.0797
23,GATTTTTA,-0.0197
24,CCTTCGAG,0.0427
25,CCGGCGTA,-0.224

row,Sequence,PBM E-score
1,AACGTGCA,-0.0584
2,GATAGCCC,-0.125
3,AACGTGGG,-0.317
4,CCTCTCGA,0.0879
5,ATGCTCTG,-0.275
6,AGCATCCG,-0.265
7,CAATGTTC,-0.213
8,GGATTGTA,-0.18
9,ACGGCGCC,-0.258
10,CAACCCTG,0.419
11,ACCTACGT,0.0527
12,GGGACTTA,-0.131
13,CTACGAAG,-0.0279
14,ATCGCACA,-0.154
15,GCGCATGA,-0.185
16,CATGCACA,0.0313
17,ATTTGGAG,-0.121
18,ACCCTATC,0.276
19,TCTGAGCA,0.0698
20,GAGACGTA,-0.0756
21,CGTACTCC,-0.151
22,CCTATTTC,0.093
23,ACATTAAA,0.0208
24,CCTGTATA,0.0101
25,AGTCATAT,-0.0414

row,Sequence,PBM E-score
1,ACCGATCG,0.00036
2,AAGCTTAG,0.0125
3,CGACAGGA,0.0413
4,TACCTCCA,0.303
5,AGTGCTAA,-0.148
6,ACACTACC,0.254
7,GTCAGCCA,-0.168
8,AGGGATTG,-0.154
9,GCGCGGTA,0.114
10,ACCGAAAA,0.267
11,ATATAGGC,-0.0262
12,CAACAAGC,-0.036
13,AACCTTAA,0.352
14,GGGTGCTA,0.176
15,GGGGCTAA,-0.131
16,TGATTTAA,0.101
17,GCAATTGC,0.0259
18,AAAGTCTC,-0.202
19,ACAGCGAG,-0.153
